Laboratory results as given in publication PMC5585049 (Journal of thrombosis and haemostasis : JTH, 2017).

Target: human GPIb-IX complex (human, UniProt P07359 17-652)
Test: ELISA

EC50: ~25 nM
B1: shortA1 (recombinant human VWF […]) (domain or fragment)
chain: not shown
modifications: O-glycosylated (2 O-glycans, predominantly disialyl core 1); […] disulfide bond
